Measured values taken from PubChem BioAssay AID761 (NMMLSC, 2007).
Out of some 190,000 compounds screened, about 400 (0.21%) were called active. The shares of active, inactive and inconclusive entries below differ from those in the screen.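 How the source made its calls: active means percent activity GTP binding at least 20 points away from the 100% baseline, either down as inhibitor or up as activator; inconclusive means compound flagged as likely green fluorescent from well-wide comparison; inactive means the rest.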

Each compound was assayed against Cell division control protein 42 homolog (Homo sapiens) (UniProt P60953) (assay: wildtype Cdc42 fluorescent GTP binding changes, either direction – biochemical, multiplex bead flow cytometry, Bodipy-GTP, primary screen (AID 761;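 further: median bead fluorescence of bound Bodipy-FL-GTP at 100 nM; 0% = excess unlabeled GTP control and 100% = no compound control; below 100% means less GTP binding so inhibitor and above means activator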)). Details: GST-Cdc42 beads, at 10 µM, actives lie on both sides.
UniProt P60953, sequence (P60953 whole entry, looked up): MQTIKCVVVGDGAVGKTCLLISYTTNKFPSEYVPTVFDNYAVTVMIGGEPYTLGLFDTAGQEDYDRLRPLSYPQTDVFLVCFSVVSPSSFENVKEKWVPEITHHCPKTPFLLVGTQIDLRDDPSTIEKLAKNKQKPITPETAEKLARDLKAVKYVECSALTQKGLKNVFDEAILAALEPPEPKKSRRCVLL
With `O=C(Nc1nc(-c2ccc(S(=O)(=O)N3CCCC3)cc2)cs1)c1cccs1` the percent activity (GTP binding) was active: 71%.
In the case of `CC(=O)c1cccc(NC(=O)CN(c2ccccc2F)S(C)(=O)=O)c1`, the percent activity (GTP binding) is reported as inconclusive: 106%.
With `CC1(CC(=O)N/N=C/c2cc3c(cc2Br)OCO3)OCCO1` the percent activity (GTP binding) was inactive: 99%.
For `Cc1ccc(-n2[nH]c(C)c(/C=N/NC(=O)c3ccc([N+](=O)[O-])cc3)c2=O)c(C)c1`, the percent activity (GTP binding) was inconclusive: 91%.
For `CC(NC1CCCCC1)C(=O)NN=C(c1ccccc1)c1ccccc1` (stereo not given), the percent activity (GTP binding) was inactive: 98%.
With `CN(c1ccccc1)S(=O)(=O)c1cccc(NC(=O)CSc2ncc(C(F)(F)F)cc2Cl)c1` the percent activity (GTP binding) was inconclusive: 97%.
`COc1ccccc1NC(=O)CN(Cc1ccco1)C(=O)c1cc2ccccc2o1` was tested, and the percent activity (GTP binding) was inactive: 92%.
In the case of `CCOC(=O)C1=C(C)NC(C)=C(C(=O)OCC)C1c1cn(-c2ccccc2)nc1-c1ccco1`, the percent activity (GTP binding) is reported as inconclusive: 104%.
For `CSc1ccccc1NC(=O)CN(C)CC(=O)Nc1ccccc1C(F)(F)F`, the percent activity (GTP binding) was inactive: 95%.
In the case of `CN(C[C@H](Cc1ccccc1)N(C[C@H](c1ccccc1)N(CCc1ccccc1)N=O)N=O)N=O`, the percent activity (GTP binding) is reported as inactive: 94%.
In the case of `C/C=C/c1ccccc1OCc1ccc(C(=O)O)o1`, the percent activity (GTP binding) is reported as active: 161% [activator].
In the case of `O=C(CCCN1C(=O)/C(=C/c2ccccc2)SC1=S)Nc1ccccc1O`, the percent activity (GTP binding) is reported as inconclusive: 91%.
`CC(C)C(=O)Nc1cccc(C(=O)Nc2cc([N+](=O)[O-])ccc2F)c1` was tested, and the percent activity (GTP binding) was inactive: 97%.
With `CCCC(=O)NCc1nc2ccccc2n1C` the percent activity (GTP binding) was inconclusive: 89%.
With `COc1ccccc1C(=O)Nc1ccc(OCc2nnc3c4ccccc4c(C)nn23)cc1` the percent activity (GTP binding) was inconclusive: 95%.
In the case of `FC(F)Sc1ccc(NC(=S)NC(c2ccccc2)c2ccccc2)cc1`, the percent activity (GTP binding) is reported as inconclusive: 93%.
With `O=[N+]([O-])c1ccc(NCCCNS(=O)(=O)c2ccccc2)cc1` the percent activity (GTP binding) was inactive: 95%.
With `Nc1nnn(Cc2ccccc2)n1` the percent activity (GTP binding) was inconclusive: 107%.
In the case of `COC(=O)CCCCC1SCC(NC(=O)OC)C1NC(=O)OC` (stereo not given), the percent activity (GTP binding) is reported as inconclusive: 106%.
For `O=C(Nc1cccc(-c2nnc(-c3ccco3)o2)c1)c1ccccc1`, the percent activity (GTP binding) was inactive: 83%.
In the case of `O=C(Nc1cccc2ccccc12)c1cnccn1`, the percent activity (GTP binding) is reported as active: 73%.
`CN1CCN(c2ccc(C(=O)c3ccc(Br)cc3)cc2[N+](=O)[O-])CC1` was tested, and the percent activity (GTP binding) was inactive: 96%.
With `COc1ccc(Cc2nnc(N/N=C/c3ccc(C)o3)[nH]c2=O)cc1` the percent activity (GTP binding) was inconclusive: 98%.
`COc1cccc2cc(C(C)=O)c(=O)oc12` was tested, and the percent activity (GTP binding) was inconclusive: 111%.
`Nc1nn2c(-c3ccccc3)cc(=O)[nH]c2c1N=Nc1ccc(Br)cc1` was tested, and the percent activity (GTP binding) was active: 75%.
`NNC(=O)CN1C(c2ccc(Cl)cc2)=Nc2ccc(Br)cc2C1c1ccccc1` (stereo not given) was tested, and the percent activity (GTP binding) was inconclusive: 96%.
For `CCC(=O)NC1CCN(C(=S)NC)CC1`, the percent activity (GTP binding) was inactive: 95%.
In the case of `O=C(O)CC/C(=C\c1ccccc1[N+](=O)[O-])c1nc2ccccc2s1`, the percent activity (GTP binding) is reported as active: 73%.
In the case of `Cc1cc(C)c2c(c1)SC1=NC(c3ccccc3)(C(F)(F)F)NC(=O)N12` (stereo not given), the percent activity (GTP binding) is reported as inactive: 99%.
In the case of `Cn1nc(-c2ccccc2)c(-c2nc(-c3cccc(C(F)(F)F)c3)no2)c1Cl`, the percent activity (GTP binding) is reported as inconclusive: 98%.
For `Cc1ccc(C2CC(c3ccco3)=NN2S(C)(=O)=O)cc1` (stereo not given), the percent activity (GTP binding) was inconclusive: 106%.
`Cc1ccc(Cc2ccc(C(=O)NNC(N)=S)o2)cc1` was tested, and the percent activity (GTP binding) was inactive: 116%.
With `CCOC(=O)c1c(C)[nH]c(=S)c(C#N)c1-c1ccc(Cl)cc1` the percent activity (GTP binding) was inconclusive: 90%.
For `Cc1ccc(NC(=O)COC(=O)c2cccc3c2C(=O)c2ccccc2C3=O)c(C)c1`, the percent activity (GTP binding) was inconclusive: 101%.
For `COC(=O)c1ccc(COc2ccccc2/C=N/Nc2cccc(C(=O)O)c2)cc1`, the percent activity (GTP binding) was active: 124% [activator].
`CCOC(=O)C1(CCCc2ccccc2)CCN(C(=O)C2=C(C)OCCO2)CC1` was tested, and the percent activity (GTP binding) was inactive: 97%.
In the case of `CC(C)CNC(=S)N1CCC(NC(=O)C23CC4CC(CC(C4)C2)C3)CC1`, the percent activity (GTP binding) is reported as inconclusive: 105%.
`CC(C)N1CSC(=S)N(Cc2ccccc2)C1` was tested, and the percent activity (GTP binding) was inactive: 97%.
In the case of `COc1cc(-c2nc3ccccn3c2/N=C/c2cc(OC)c(O)cc2Cl)ccc1O`, the percent activity (GTP binding) is reported as inactive: 87%.
For `O=C(Nc1ccc([N+](=O)[O-])cc1)C1CC12CCC2` (stereo not given), the percent activity (GTP binding) was inactive: 96%.
For `Brc1ccc(CSc2ccc3nnc(-c4ccccn4)n3n2)cc1`, the percent activity (GTP binding) was inconclusive: 89%.
For `CS(=O)(=O)N1N=C(c2ccccc2)CC1c1ccc2c(c1)OCO2` (stereo not given), the percent activity (GTP binding) was inconclusive: 122%.
`Cc1ccc2c(c1)-c1c(cnn1CC(=O)Nc1ccccc1N1CCN(C)CC1)CO2` was tested, and the percent activity (GTP binding) was inconclusive: 104%.
`O=C(Nc1ccc(-c2nc3ccc(NC(=O)c4cccs4)cc3[nH]2)cc1)c1cccs1` was tested, and the percent activity (GTP binding) was inconclusive: 83%.
For `CCOC(=O)N1CCN(C(=O)CCl)CC1`, the percent activity (GTP binding) was inactive: 99%.
`CCCNC(=O)C(=O)NCc1ccccn1` was tested, and the percent activity (GTP binding) was inconclusive: 59%.
In the case of `CN1CCCC1=Nc1c2c(nc3ccccc13)N(C)CC2`, the percent activity (GTP binding) is reported as inconclusive: 103%.
With `COc1cc(C(=O)NCCOc2ccc(F)cc2)c(Br)c(OC)c1OC` the percent activity (GTP binding) was inactive: 98%.
With `O=C(CN1C(=O)S/C(=C/c2cccnc2)C1=O)N1CCOCC1` the percent activity (GTP binding) was inactive: 83%.
With `CCn1nc(NC(=O)c2cccs2)c2cc3ccccc3nc21` the percent activity (GTP binding) was inactive: 90%.
`Cc1ccc2c(c1)c(N=NC(N)=O)c(O)n2C` was tested, and the percent activity (GTP binding) was inconclusive: 88%.
For `COc1ccc(C(NC(=O)C2CCCCC2)c2c(O)ccc3ccccc23)cc1` (stereo not given), the percent activity (GTP binding) was inactive: 96%.
In the case of `Cc1nc2nc(C)c(CCC(=O)NC(C)c3ccc4c(c3)OCCO4)c(C)n2n1` (stereo not given), the percent activity (GTP binding) is reported as inconclusive: 105%.
In the case of `Cc1nn(-c2ccc(F)cc2)c(C)c1/C=C/C(=O)N1CCNC(=O)C1`, the percent activity (GTP binding) is reported as inactive: 102%.
With `O=C(NCCCn1ccnc1)C(Cc1ccccc1)N1C(=O)c2ccccc2C1=O` (stereo not given) the percent activity (GTP binding) was inconclusive: 91%.
For `CC(=O)c1c(C)[nH]c(C(=O)Nc2cccnc2)c1C`, the percent activity (GTP binding) was inconclusive: 96%.
`Cc1ccc(C)c(CSc2ncccc2C(=O)O)c1` was tested, and the percent activity (GTP binding) was active: 132% [activator].
With `C/C(CC(=O)Nc1cccc(C(F)(F)F)c1)=N\NC(=O)C1CCCCC1` the percent activity (GTP binding) was inconclusive: 95%.
In the case of `O=C(/C=C/c1ccccc1)NC(=S)Nc1ccc(CN2CCOCC2)cc1`, the percent activity (GTP binding) is reported as inconclusive: 102%.
`O=c1oc2c3c4c(cc2c2c1CCC2)OCCN4CCC3` was tested, and the percent activity (GTP binding) was inconclusive: 92%.
